PubChem BioAssay AID588342 (National Center for Advancing Translational Sciences (NCATS), 2011)
The whole screen tested about 360,000 compounds, of which about 25,000 (6.9%) were called active. The shares of active, inactive and inconclusive entries below differ from those in the screen. Calls follow the shape of the dose curve; as a rule, active = well fitted inhibition curve with a large enough effect; inconclusive = small, poorly fitted or top-dose-only effect; inactive = flat fitted curve, though single readings scatter. Potencies of inconclusive entries are doubtful fits and often do not repeat.

The compounds below were run against Luciferin 4-monooxygenase (Photinus pyralis) (UniProt P08659) (assay: qHTS profiling assay for firefly luciferase inhibitor/activator using purifed enzyme and Km concentrations of substrates (counterscreen for miR-21 project)). Conditions: purified FLuc, luminescence inhibition; series mostly up to 57.5 µM.
How it was run: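 Purified P. pyralis luciferase (10nM final) with 10uM D-luciferin and 10uM ATP (Km levels) in 50mM Tris acetate pH 7.5, 10mM Mg acetate, 0.01% Tween-20, 0.05% BSA; qHTS 6-point titration, ~60 µM downward; luminescence read.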
Also: nearly all actives have a fitted effect of over 55% in size.
Potency is read from the fitted curve at half-maximal effect; tags tell the direction and shape of the fitted curve.

Chain of UniProt P08659 (P08659 whole entry, looked up): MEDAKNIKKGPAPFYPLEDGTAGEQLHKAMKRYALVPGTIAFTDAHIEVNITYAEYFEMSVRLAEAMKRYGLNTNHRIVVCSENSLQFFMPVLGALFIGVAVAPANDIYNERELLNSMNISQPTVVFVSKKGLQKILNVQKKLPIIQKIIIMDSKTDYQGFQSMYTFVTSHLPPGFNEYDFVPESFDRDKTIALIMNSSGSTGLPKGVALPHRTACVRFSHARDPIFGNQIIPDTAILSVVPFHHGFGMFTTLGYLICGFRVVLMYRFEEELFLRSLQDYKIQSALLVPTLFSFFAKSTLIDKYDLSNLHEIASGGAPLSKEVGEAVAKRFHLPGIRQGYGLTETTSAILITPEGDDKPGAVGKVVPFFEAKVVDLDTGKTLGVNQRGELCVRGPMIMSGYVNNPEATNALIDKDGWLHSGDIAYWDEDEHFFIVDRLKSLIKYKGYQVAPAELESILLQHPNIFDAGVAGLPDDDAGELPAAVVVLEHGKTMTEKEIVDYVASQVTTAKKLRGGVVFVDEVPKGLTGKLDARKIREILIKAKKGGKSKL

Compound | Potency
COc1ccc(CNC(=O)CN2C(=O)NC(C)(c3cccc4ccccc34)C2=O)cc1OC (stereo unspecified) | inactive
O=C(O)c1cccnc1Sc1ccc(Br)cc1 | inactive
O=C(CSc1nc(O)c(Cc2ccccc2)c(=O)[nH]1)Nc1nc2c(s1)CCCC2 | inconclusive: 37.9 µM [inhibitor, single point]
COc1ccc(-c2cc(C(=O)Nc3cc(C)nn3-c3ccccc3)no2)cc1 | active: 13.5 µM
CCn1c2ccccc2c2cc(NC(=S)N3CCOCC3)ccc21 | inconclusive: 37.9 µM [inhibitor, partial curve, poor fit]
CCCCn1c(N)c(N(CC(C)C)C(=O)c2c(CC)noc2C)c(=O)[nH]c1=O | inactive
Cc1ccc(-c2nc3ccsc3c(=O)[nH]2)cc1 | active: 12 µM
Cc1ccc(S(=O)(=O)NNc2nc3ccccc3nc2C(F)(F)F)cc1 | inactive
O=C(CSc1ccc(Cl)cc1)NCc1ccncc1 | inactive
Cc1ccc(-c2ccc(C(=O)NCCCNC(=O)c3cnccn3)o2)cc1Cl | inconclusive: 23.9 µM [inhibitor, single point]
C/C(=N/NC(=O)c1ccc2c(c1)OCO2)c1cccc([N+](=O)[O-])c1 | active: 6.01 µM
COc1cccc2sc(NNC(=O)c3nc4ccccc4s3)nc12 | inconclusive: 16.9 µM [inhibitor, partial curve]
Cc1ccc2c(Cl)cc(Cl)c(OCC(=O)Nc3ccc(C)c(S(=O)(=O)N(C)C)c3)c2n1 | inactive
COCCNC(=O)C1(S(=O)(=O)c2ccccc2)CC=CC1 | inactive
Cc1c(C(=O)N2CCC(C)CC2)c(S(=O)(=O)Nc2cccc(C(F)(F)F)c2)c(C)n1C | inconclusive: 37.9 µM [inhibitor, partial curve, poor fit]
COc1ccc(OC)c(CCNC(=O)c2cnn(-c3ccc(C)cc3C)c2C2CCN(C(=O)OC(C)(C)C)CC2)c1 | inactive
Nc1nc(SCc2ccccc2Cl)ns1 | inconclusive: 21.3 µM [inhibitor, partial curve, poor fit]
COc1ccc(CNC(=O)Cn2c(=O)ccc3cc(S(=O)(=O)N4CCCC4)ccc32)cc1 | inactive
O=C(C1=C[C@H](C2CC2)C[C@H](OCc2ccc(CO)cc2)O1)N1CCOCC1 | inactive
COc1ccc(C(=O)NC(=S)NCc2ccco2)cc1 | inconclusive: 26.9 µM [inhibitor, partial curve, poor fit]
Cc1nn(S(=O)(=O)c2ccc(C(C)(C)C)cc2)c(C)c1S(=O)(=O)N1CCC(C)CC1 | inconclusive: 37.9 µM [inhibitor, partial curve, poor fit]
